Toxic doses and inconclusive results are not listed. Some entries of the source have several records that differ or are many. The list is limited to them. An entry can have further records. The records of an entry differ, and nothing given here explains why; they may come from other doses, times, organisms or constructs than stated.

The test system of the test is CD2F1 mice, P388/ADR leukemia ip, median survival T/C. In words: NCI In Vivo Anticancer Drug Screen. Data for tumor model P388 Leukemia resistant to Adriamycin; NSC 123127, Developed at Scr 08 (intraperitoneal) in CD2F1 (CDF1) mice. To be noted: endpoint: median survival time; dose: 6.25 mg/kg/injection; schedule: Q01DX005 (ip); vehicle: saline with Tween-80; higher = longer survival. The procedure: The antitumor activity of compounds was measured in mice bearing transplantable tumors. Survival or tumor size were measured and the results are expressed as the measurement made in the treated group (T) divided by the measurement made in the vehicle treated control group (C). The tumor model used in this assay is P388 Leukemia resistant to Adriamycin; NSC 123127, Developed at Scr 08 (intraperitoneal) in CD2F1 (CDF1) mice

`CO[C@@]12[C@@H]3N[C@@H]3CN1C1=C(C(=O)C(N3CCCC3)=C(C)C1=O)[C@@H]2COC(N)=O`: the T/C is 122 % of control and 165 % of control.

The record behind these values is PubChem BioAssay AID322 (DTP/NCI, 2004).
